Results as given in PubChem BioAssay AID1794842 (National Center for Advancing Translational Sciences (NCATS), 2023).
The campaign covered roughly 2,800 compounds. Fewer than 10 were called active. Calls follow the shape of the dose curve; as a rule, active = well fitted curve in the direction sought with a large enough effect; inconclusive = small, poorly fitted or top-dose-only effect, or another doubt; inactive = no such curve, though single readings can be large or run the other way. The list shows a part of the results.

Target: Metallo-beta-lactamase type 2 (Klebsiella pneumoniae) (UniProt C7C422)
Test: qHTS to identify inhibitors of the New Delhi Metallo-beta-lactamase (NDM): Meropenem screen against the machine-based learning selections. Also: % of control where 0% means no effect.
Conditions: Purified NDM-1, meropenem hydrolysis, absorbance 300 nm; at 38.4 µM (top of the series) unless noted
Method in brief: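 Hydrolysis by 2 nM NDM-1 was followed by absorbance after >30 min compound preincubation in HEPES pH 7.0 buffer with 1 uM Zn2SO4. For nitrocefin (16.7 uM, 15 min, 485 nm) and meropenem (50 uM, 30 min, 300 nm), each substrate ran on separate plates.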

Sequence of UniProt C7C422 (C7C422 whole entry, looked up): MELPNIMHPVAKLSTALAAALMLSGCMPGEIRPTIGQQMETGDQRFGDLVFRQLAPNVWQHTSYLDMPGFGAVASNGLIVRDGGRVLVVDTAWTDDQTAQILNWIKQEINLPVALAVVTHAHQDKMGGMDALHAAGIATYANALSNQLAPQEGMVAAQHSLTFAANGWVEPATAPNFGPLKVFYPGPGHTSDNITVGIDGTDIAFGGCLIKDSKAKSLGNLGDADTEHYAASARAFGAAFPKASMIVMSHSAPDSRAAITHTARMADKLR

Activity change, negative = inhibition, inactive:
Cc1ccnc(N2CCN(C3CCC4(CCNCC4)CC3)CC2)c1 46%
CN(Cc1ccccc1)C(=O)C[C@@H]1CCNC[C@@H]1Cc1cc(-c2ccc(C(C)(C)C)cc2)on1 -3.25%
Cc1noc2c(-c3cccnc3NC3CCC(O)CC3)cc(-c3ccccc3)nc12 (stereo not given) 62.3% [at 57.5 µM]
CC(=O)Nc1ccc(S(=O)(=O)NC[C@@H]2C=C(C)[C@H](CC(=O)NCCN(C)C)C[C@H]2C(C)C)cc1 -1.22%
N#Cc1ccc(C(=O)N2C[C@@H]3C[C@H](C2)c2ccc(-c4ccc(OC(F)(F)F)cc4)c(=O)n2C3)cc1 -1.86%
Cc1ccc(C(=O)NC[C@@H]2CC[C@H]3C[C@@H]2C3(C)C)cc1 0.368% [at 57.5 µM]
Cc1nc(C(C)C)sc1CNC(=O)C1CCC(=O)N(C2CCCC2)C1 (stereo not given) 0.213%
CCc1cc(=O)n(CC(=O)Nc2ccc(C(F)(F)F)cc2)c(N2CCOCC2)n1 -0.247%
CC1(C(=O)NCCc2ccccn2)COCc2cnc(Nc3ccccc3)nc21 (stereo not given) 8.33% [at 57.5 µM]
CC1(CNc2ccccc2)COc2ccc(C(=O)NCCc3cnc[nH]3)cc2N1 (stereo not given) 11.9% [at 57.5 µM]
CN1Cc2ncnc(NCCc3ccc(F)cc3)c2CN(c2ccc(Cl)cc2)C1=O -0.174%
COC(=O)c1cn([C@H]2CO[C@H]3[C@@H]2OC[C@H]3OC(=O)Nc2cccc(C#N)c2)nn1 -0.026% [at 57.5 µM]
COC[C@@H]1CN(C(=O)c2ccc(OC)nc2)C[C@H]1c1nc(C2CC2)no1 0.661%
NC(=O)Cc1c[nH]c2ncc(-c3ccc4c(c3)OCO4)cc12 7.8% [at 57.5 µM]
O=C(NC(c1ccccc1)c1ccccc1)c1cnc2c(c1)N(Cc1ccccc1)CCC2 -2.65% [at 57.5 µM]
O=C(N[C@H]1CC[C@H](Nc2nccc(-c3cccnc3)n2)C1)c1ccc(O)cc1 -4.84%
COc1ccc(-c2cnc3[nH]cc(CC(=O)NCc4cnccn4)c3c2)cc1 -2.43% [at 57.5 µM]
COc1nccnc1NC1CCN(C(=O)c2cccs2)CC1 1.07%
COc1cccc(NC(=O)N[C@H]2[C@H](O)[C@@H](N3CCN(C)CC3)[C@@H]3OC[C@H]2O3)c1 -0.0731% [at 57.5 µM]
COC(=O)[C@H](Cc1ccc(OC)cc1)NC(=O)[C@H]1CN(S(=O)(=O)c2ccccc2)CCN1C(=O)c1cccs1 0.492%
CS(=O)(=O)N1CCCCC1CCNc1nccc(-c2cccnc2)n1 (stereo not given) 2.53%
CC(=O)N1CCN(CC[C@H]2CN(C(=O)c3ccnc(Cl)c3)CC[C@H]2CC(=O)O)CC1 26.6%
O=C(CN1C(=O)NC(c2ccccc2Cl)C2=C1COC2=O)Nc1ccc(F)c(Cl)c1 (stereo not given) 2.9%
O=[S+]([O-])(c1cccnc1)N1CCNc2cnc(Nc3ccc(-n4ccnc4)cc3)nc2C1 35.7%
Cc1ccc(-c2cc(N3CCC(CNC(=O)c4cc(C5CC5)[nH]n4)CC3)n[nH]2)cc1 5.43%
COc1cccc(CNC(=O)c2cc(-c3ccncc3)cn2C)c1OC 2.14%
CCNC(=O)N1CCC[C@@H](O)[C@H](NC(=O)c2ccc(OCCOC)cc2)C1 0.107% [at 57.5 µM]
COc1cccc(CN2CCN(c3ncccc3Cl)CC2CCO)c1 (stereo not given) -2.21%
O=C(c1ccccc1)N1CCn2c(nn(-c3ccc([N+](=O)[O-])cc3)c2=O)C1 8.06%
COC(=O)c1cn([C@H]2CO[C@H]3[C@@H]2OC[C@@H]3NC(=O)c2ccc(N(C)C)cc2)nn1 14.7% [at 57.5 µM]
CCc1ccc(N2CC(c3noc(-c4cc(Cl)ccc4F)n3)CC2=O)cc1 (stereo not given) 0.385%
COc1ccc2c(c1)CCN=C2C[C@H]1CN(C(=O)c2cccc(F)c2)CC[C@H]1CC(=O)O 3.07%
CCN(CC)Cc1cnc2c(C(=O)N3CCC(N(C)C)C3)cnn2c1 (stereo not given) -2.89%
CC(=O)N1CCC(NC2(Cc3cc(CN(C)Cc4ccccc4)on3)COC2)CC1 -0.101% [at 57.5 µM]
Cn1c(CN2CCOCC2)nnc1C1CCN(c2ncccc2C#N)CC1 0.311%
Cc1ccc(NC(=O)O[C@@H]2CO[C@H]3[C@@H]2OC[C@@H]3Nc2nccc(-c3ccccc3)n2)cc1 2.93% [at 57.5 µM]
O=c1n(-c2ccc([N+](=O)[O-])cc2)nc2n1CCN(Cc1cccc3ccccc13)C2 6.62%
Cc1cc(Cn2cc3c4c(cccc42)[C@H](CC(C)C)N[C@H](C(=O)NCCN2CCCC2)C3)no1 -3.17%
COc1ccc(C(=O)N2CCCC(O)(CN3CCCC3)C2)cc1Cl (stereo not given) -1.57%
COc1ccc(C(=O)N2CCC(N3CCCCCC3=O)CC2)cc1 -0.899% [at 57.5 µM]
O[C@@H]1[C@@H](Cn2cc(-c3cccnc3)nn2)C[C@@H](NC2CCOCC2)[C@@H]1O 47.6%
COC(=O)c1ccc2nc(CO[C@H]3CN(Cc4cnn(C)c4)C[C@H]3F)[nH]c2c1 2.32% [at 57.5 µM]
O=C(CN1CC2CC(C1)[C@H]1CCCC(=O)N1C2)NCc1cc(F)ccc1F (stereo not given in full) 1.21%
CC(=O)Nc1ccc(CN2CC3(C2)C(=O)N(Cc2ccc(C)o2)C(=O)[C@@H]2C[C@@H](O)CN23)cc1 0.75%
CCNC(=O)O[C@@H]1CO[C@H]2[C@@H]1OC[C@@H]2NC(=S)Nc1ccc(N(C)C)cc1 7.83% [at 57.5 µM]
CN(Cc1ccccc1)Cc1cn([C@H]2CO[C@H]3[C@@H]2OC[C@@H]3NC(=O)CCC(=O)O)nn1 3.39% [at 57.5 µM]
Cc1noc([C@@H](C)NS(=O)(=O)c2ccccc2)c1C(=O)O 4.92% [at 57.5 µM]
Cc1cc(-c2cc3c(cn2)CN(Cc2ccc4[nH]ccc4c2)CCN3)ccn1 -1.79% [at 57.5 µM]
CN(C(=O)c1cc2ccccc2n1C)C1CCCN(C2Cc3ccccc3C2)C1 (stereo not given) 0.817%
Nc1cncc(-c2nccc(N3CCC(O)CC3)n2)c1 62.2%
Cc1noc(C2CC3(CCN(C(=O)C4CCC4)CC3)CN2C)n1 (stereo not given) 1.47%
COCCNC(=O)C[C@@H]1O[C@H](CNC(=O)c2cccc(F)c2)[C@@H](O)[C@H]1O -5.31% [at 57.5 µM]
CSCC(=O)N1CC[C@H](NC(=O)Nc2ccc(F)cc2F)[C@H]1C(=O)N[C@@H](Cc1cccs1)C(N)=O -0.628%
Cc1noc2c(N3CC(O)C3)cc(-c3ccsc3)nc12 10.5% [at 76.7 µM]
O=C(N[C@H]1CCN2C(=O)c3ccccc3NC(=O)[C@@H]2C1)c1ccccc1 0.0244% [at 57.5 µM]
OC1(c2nc(Nc3ccc(Oc4ccccc4)cc3)n[nH]2)CCOCC1 40.1% [at 57.5 µM]
CCc1ccc(CNC(=O)c2ccc3c(c2)N(C)C2CCCCN2C3=O)cc1 (stereo not given) -0.597%
COc1ccc(Cl)cc1-c1ccc2c(c1)C(=O)N1CCN(C(=O)CO)C[C@@H]1C(=O)N2 21.9% [at 57.5 µM]
COCCO[C@H]1C(=O)N(C2CCN(C(=O)c3cnccn3)CC2)[C@H]1c1ccncc1 0.176%
COC(=O)N1CCCC(c2nn(-c3ccc(OC)cc3)c(=O)[nH]2)C1 (stereo not given) 3.69% [at 57.5 µM]
CCCC1(CO)CCCN(Cc2ccc(OCC(=O)N3CCCC3)cc2)C1 (stereo not given) -3.09%
CC1(C(=O)NCc2cccnc2)CCCc2cnc(Nc3ccccc3)nc21 (stereo not given) -1.69% [at 57.5 µM]
CC[C@H]1CN(C(=O)NC(C)C)CC[C@H]1CC(=O)N(C)CCC#N -1.97% [at 57.5 µM]
O=c1c2nc(-c3cccc(O)c3)ccc2ncn1Cc1ccccn1 13.6% [at 57.5 µM]
O=c1c2nc(NCc3ccccc3)ccc2ncn1Cc1ccccc1 9.65% [at 57.5 µM]
Cc1ccc2c(n1)N(C)[C@H](CO)CCN(Cc1ccc(Cl)cc1)C2 -1.68% [at 57.5 µM]
c1c(CC2CCCCC2)nnn1[C@H]1CO[C@H]2[C@@H]1OC[C@@H]2NCC1CCCCC1 -1.06% [at 57.5 µM]
Cc1ccc2nc(C3CCN(Cc4ccc(-c5cccs5)cc4)CC3)[nH]c(=O)c2c1 9.14%
CC(=O)NC[C@@H]1C=C(C)[C@H](CC(=O)N(C)Cc2ccccc2)C[C@H]1C(C)C 6.37% [at 57.5 µM]
Cc1ccc2nc(C3CCCN(Cc4ccccc4)C3)[nH]c(=O)c2c1 (stereo not given) -0.317% [at 57.5 µM]
CN1[C@@H](CCC(=O)N2CC[C@@H](O)C2)CNC(=O)[C@@H]2[C@H]1CCN2C1CCOCC1 -4.43% [at 57.5 µM]
Cc1ccc(S(=O)(=O)N(C)CC2CCOC2)cc1F (stereo not given) 3.62%
OC(c1nc(Nc2ccc(N3CCOCC3)cc2)n[nH]1)C1CC1 (stereo not given) 48.7% [at 57.5 µM]
CNC(=O)C1(N2CCC[C@H]2C(=O)NC(C)C)COC1 -1.65% [at 76.7 µM]
O=C(O)c1ccc([S+](=O)([O-])N2CC(COc3ccccc3)C3(CN(c4ccccc4)C3)C2)cc1 (stereo not given) 1.65%
